The other results are listed elsewhere or left out. Further columns of the screen follow, without active or inactive calls. The list favours compounds with an active or inconclusive main result.
Test: insulin promoter activators in MIN6 cells, imaging, high-content screening, mouse beta cells (AID 1625);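 note: total cells summed across four imaged fields per well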
Settings: MIN6 insulin promoter-GFP reporter, measured here: cytotoxicity, nuclei count, at 5 µM

Q: For `CC[n+]1ccccc1/C=C/c1ccc(N(C)C)cc1`, which cell count is on record?
A: The cell count was 239 cells.

Q: For `O=C(CCl)Nc1cc(SCC(O)CO)cc([N+](=O)[O-])c1` (configuration not stated), which cell count is on record?
A: Its cell count is 439 cells.

Q: Which cell count does the source give for `COc1cccc(-c2csc(N3CCN(C(=O)NC45CC6CC(CC(C6)C4)C5)CC3)n2)c1` here?
A: The cell count was 386 cells.

Q: For `Oc1c(C=NCc2ccc(F)cc2)[nH]c2ccc(Br)c(Cl)c12`, which cell count is on record?
A: Its cell count is 869 cells.

Q: With `COc1ccccc1N/C(N)=N/c1nc(CSc2ccc(C)cc2)cc(=O)[nH]1` as the compound, how does the cell count read?
A: The cell count was 438 cells.

Q: With `C[n+]1cc(C(=O)N2CCCCC2)ccc1/C=C/c1c[nH]c2ccccc12` as the compound, how does the cell count read?
A: Its cell count is 1480 cells.

Q: With `CCn1c(-c2ccc(N(C)C)cc2)nc2ccccc21` as the compound, how does the cell count read?
A: Its cell count is 261 cells.

Q: With `COc1ccc(C(CCN2CCCC(C)C2)c2c(OC)cc(OC)c3c(-c4ccccc4)cc(=O)oc23)cc1` (configuration not stated) as the compound, how does the cell count read?
A: The cell count was 437 cells.

Q: Which cell count does the source give for `C=CCN1C(=O)c2cccc3c(N4CCCCC4)ccc(c23)C1=O` here?
A: Its cell count is 1230 cells.

Q: Which cell count does the source give for `O=C1CCCCc2sc(Br)c([N+](=O)[O-])c2N1` here?
A: The cell count was 492 cells.

Q: For `CCOC(=O)N1CCN(/C=C(\C#N)c2nc3ccccc3s2)CC1`, which cell count is on record?
A: The cell count was 980 cells.

Q: Which cell count does the source give for `CCOC(=O)c1cnc(Nc2nc3ccccc3o2)nc1CSC(=S)N1CCCCC1` here?
A: Its cell count is 309 cells.

Q: With `CCCCCc1cc(=O)oc2c(C(CCN(CC)CC)c3ccc(N(C)C)cc3)c(OC)cc(OC)c12` (configuration not stated) as the compound, how does the cell count read?
A: The cell count was 323 cells.

Q: With `C=CCNC(=O)c1c2c(nc3ccccc13)-c1ccccc1CC2` as the compound, how does the cell count read?
A: The cell count was 1580 cells.

Q: For `CCCCCCCCCCn1c2c(c(=N)c3c1CCC3)CCC2`, which cell count is on record?
A: The cell count was 116 cells.

Q: With `Cc1ccc(-c2cc(-c3ccco3)c3c(N)c(C(=O)NN)oc3n2)cc1` as the compound, how does the cell count read?
A: The cell count was 1080 cells.

Q: With `COc1cccc(C(=O)c2sc(NC(C)C)nc2N)c1` as the compound, how does the cell count read?
A: The cell count was 368 cells.

Q: With `CCn1c(SCC(=O)c2c[nH]c3ccccc23)nnc1-c1cccs1` as the compound, how does the cell count read?
A: The cell count was 370 cells.

Q: Which cell count does the source give for `CCCCNC(=O)C1CC(=O)N(C2CCCCC2)C1` (configuration not stated) here?
A: The cell count was 1520 cells.

Q: With `COc1ccc(-n2c(-c3ccc(Br)cc3)c[n+]3c2CCCCC3)cc1` as the compound, how does the cell count read?
A: The cell count was 368 cells.

Q: With `O=C(CSc1nc2ccc(Cl)cc2o1)NCc1ccc2c(c1)OCO2` as the compound, how does the cell count read?
A: The cell count was 915 cells.

Q: For `CCCCCCCCCCCCCCCC[n+]1ccc(/C=N/O)cc1`, which cell count is on record?
A: Its cell count is 330 cells.

Q: For `CCOc1ccc(NC(=O)Cn2c(=O)oc3ccccc32)cc1`, which cell count is on record?
A: Its cell count is 766 cells.

Q: With `Oc1ccccc1/C=N/Nc1nc2ccccc2o1` as the compound, how does the cell count read?
A: Its cell count is 405 cells.

Q: With `Cc1cc(/C=C2\Sc3ccccc3N2C)cc(C)[n+]1CC1CCCO1` (configuration not stated) as the compound, how does the cell count read?
A: The cell count was 393 cells.

Q: For `Cc1cc(NNC(=O)Nc2cccc(Cl)c2)nc2c1c(C)nn2C`, which cell count is on record?
A: The cell count was 392 cells.

Q: Which cell count does the source give for `Cc1c(-c2ccc(O)cc2)nc2nc(-c3ccccc3)c(-c3ccccc3)nn12` here?
A: Its cell count is 985 cells.

Q: With `CC(C)CNC(=O)CSc1nnc(-c2cccc(S(=O)(=O)N3CCCCC3)c2)o1` as the compound, how does the cell count read?
A: The cell count was 1140 cells.

Q: For `Cc1noc(C)c1CS(=O)(=O)c1ccc(Br)cc1`, which cell count is on record?
A: Its cell count is 1660 cells.

Q: With `Cc1cc(C2C(C#N)=C(N)Oc3n[nH]c(C)c32)c(C)s1` (configuration not stated) as the compound, how does the cell count read?
A: Its cell count is 1520 cells.

Q: For `Cn1nc([N+](=O)[O-])nc1Sc1nnc(-c2ccccc2)o1`, which cell count is on record?
A: Its cell count is 392 cells.

Q: With `Cc1sc2cc3c(c(C(=O)c4ccccc4)[n+]2c1C)-c1cccc2cccc-3c12` as the compound, how does the cell count read?
A: The cell count was 265 cells.

Q: For `O=c1c(N2CCOCC2)c(N2CCOCC2)c1=O`, which cell count is on record?
A: Its cell count is 911 cells.

Q: Which cell count does the source give for `CCOc1ccc(Nc2nc(NCC3CCCO3)c3ccccc3n2)cc1` (configuration not stated) here?
A: The cell count was 409 cells.

Q: With `COc1ccc(-c2ccc3c(N)c(C(=O)c4cccc(OC)c4)sc3n2)cc1` as the compound, how does the cell count read?
A: The cell count was 797 cells.

Q: Which cell count does the source give for `OC(CNCCC1C=Nc2ccccc21)Cn1c2ccc(Cl)cc2c2cc(Cl)ccc21` (configuration not stated) here?
A: Its cell count is 380 cells.

Q: With `O=C(/C=C/c1ccc(N2CCC(c3ccccc3)=N2)cc1)c1ccccc1` as the compound, how does the cell count read?
A: The cell count was 1180 cells.

Q: Which cell count does the source give for `CCCCn1c(SCC(=O)O)nc2ccccc21` here?
A: Its cell count is 918 cells.

Q: With `COc1ccc(C2C=C(c3cccs3)Nc3nc(CCCO)nn32)cc1` (configuration not stated) as the compound, how does the cell count read?
A: Its cell count is 1290 cells.

Q: Which cell count does the source give for `O=C(c1ccc(CS(=O)(=O)c2ccc(Br)cc2)o1)N1CCN(C2CCCCC2)CC1` here?
A: The cell count was 276 cells.

Q: For `COc1cccc(N2CCN(c3ncnc4c3[nH]c3ccccc34)CC2C)c1` (configuration not stated), which cell count is on record?
A: The cell count was 371 cells.

Q: With `S=C(Nc1ccc(Cl)c(Cl)c1)NC1CCN(Cc2ccccc2)CC1` as the compound, how does the cell count read?
A: The cell count was 479 cells.

Q: For `O=S(=O)(Nc1cc(Sc2cccc3cccnc23)c(O)c2ccccc12)c1ccccc1`, which cell count is on record?
A: The cell count was 268 cells.

Q: Which cell count does the source give for `CCOC(=O)N1[C@@H]2C=C(C)[C@@H]2[C@@H]2[C@@H](C)C(=O)N21` here?
A: The cell count was 491 cells.

Q: For `CC(=O)C1=C(C)NC(SCC(=O)c2ccc(Cl)c(Cl)c2)=C(C#N)C1c1ccco1` (configuration not stated), which cell count is on record?
A: Its cell count is 945 cells.

Q: Which cell count does the source give for `CCn1ncc(C2=NOC(C(=O)Nc3cnn(C45CC6CC(CC(C6)C4)C5)c3)C2)c1C` (configuration not stated) here?
A: Its cell count is 453 cells.

Q: Which cell count does the source give for `CC1(C)COC(/C=C/c2ccc([N+](=O)[O-])cc2)=N1` here?
A: Its cell count is 437 cells.

Q: For `Cc1nn(C)cc1N1C(=O)c2cccc3c(N)ccc(c23)C1=O`, which cell count is on record?
A: The cell count was 1480 cells.

Q: With `O=c1c(Cl)c(Cl)cnn1Cc1ccccc1Cl` as the compound, how does the cell count read?
A: The cell count was 423 cells.

Q: For `COC(=O)C1=C(Nc2ccc(C)cc2)C=C(C)C(C(=O)OC)C1c1ccc(F)cc1` (configuration not stated), which cell count is on record?
A: The cell count was 476 cells.

Q: For `CS(=O)(=O)ON=C1CCN(S(=O)(=O)c2ccccc2)CC1`, which cell count is on record?
A: The cell count was 1390 cells.

Q: With `COc1cccc(Cn2c(NCc3ccco3)nc3c2c(=O)n(C)c(=O)n3C)c1` as the compound, how does the cell count read?
A: The cell count was 314 cells.

Q: For `C/C(=N/NC(=O)CCC(=O)Nc1cccc(Cl)c1)c1ccc(C)cc1`, which cell count is on record?
A: Its cell count is 464 cells.

Q: For `CCCCCCN1C=CC(=C/C=C(\C#N)C(=O)OCC)C=C1`, which cell count is on record?
A: Its cell count is 1660 cells.

Q: For `CN1CC=C2C(C#N)=C(N)C(C#N)(C#N)[C@H](c3cccc(Cl)c3)C2C1` (some centres not stated), which cell count is on record?
A: The cell count was 908 cells.

Q: With `O=C1C(Cl)=C(N2CCN(c3ccccc3[N+](=O)[O-])CC2)C(=O)c2ccccc21` as the compound, how does the cell count read?
A: The cell count was 225 cells.

Q: Which cell count does the source give for `C=CCNC(=O)C1CCN(S(=O)(=O)c2ccc(Br)cc2)CC1` here?
A: The cell count was 1120 cells.

Q: With `Cc1ccc(-c2ccc(/C=C(\C#N)C(=O)Nc3cc(C)nn3-c3ccccc3)o2)cc1` as the compound, how does the cell count read?
A: Its cell count is 1630 cells.

Q: With `Cc1ccnc(N2C(=O)c3cccc4c([N+](=O)[O-])ccc(c34)C2=O)c1` as the compound, how does the cell count read?
A: Its cell count is 1440 cells.

Q: For `O=C1c2cccc3c(O)ccc(c23)C(=O)N1Cc1ccccc1`, which cell count is on record?
A: Its cell count is 955 cells.

Q: With `Cc1ccc(-c2noc(CCC(=O)NCCN3CCN(Cc4ccccc4)CC3)n2)cc1` as the compound, how does the cell count read?
A: The cell count was 474 cells.

Q: With `COc1ccc(-c2cn(-c3ccc(OC)cc3)c3[n+]2-c2ccccc2CC3)cc1` as the compound, how does the cell count read?
A: Its cell count is 468 cells.

Q: For `COc1ccc(CCNc2c(C)c(C)nc3ncnn23)cc1`, which cell count is on record?
A: The cell count was 342 cells.

Q: Which cell count does the source give for `C=CCc1cccc(/C=N/NC(=O)C(C)Nc2ccc(C)cc2)c1O` (configuration not stated) here?
A: The cell count was 490 cells.

Q: For `COc1ccc(NC(=O)C(C)N2c3cccc4cccc(c34)S2(=O)=O)cc1OC` (configuration not stated), which cell count is on record?
A: The cell count was 445 cells.

Q: Which cell count does the source give for `CCCSc1nc2c(c(=O)n(C)c(=O)n2C)n1Cc1ccc(C)cc1` here?
A: The cell count was 497 cells.

Q: Which cell count does the source give for `COc1ccccc1[C@@H]1C(c2cccc(Cl)c2)=NN(c2ccc(Br)cc2)[C@H]1C(=O)N1CCOC1=O` here?
A: Its cell count is 384 cells.
